Data: paper PMC11004410, “Apolipoprotein A1 and high-density lipoprotein limit low-density lipoprotein transcytosis by binding SR-B1” (Journal of Lipid Research, 2024)
Values belong to the binder of their own block, whether it stands above or below them.

Columns and labels:
[1] = molecular target: T1, His-tagged SR-B1 ectodomain (His6.hSR-B1 (amino acid 33-444)) (human, UniProt Q8WTV0 33-444, labeled with the Monolith His-Tag Labeling Kit Red-tris-NTA); experiment: MST; Monolith NT.115; 50 nM His6.hSR-B1(33-444) labeled with Red-tris-NTA; APOA1 or APOA1-Milano from 1 nM to 8 μM; PBS with 0.05% Tween; room temperature; 40% LED power, high MST power; apparent Kd; conditions: both partners purified
T1 construct: scavenger receptor B1 (SR-B1), human, luminal domain / ectodomain, amino acids 33-444; Cloned into PB-T-PAF downstream of the protein A tag; also called His6.hSR-B1(amino acids 33-444); His6.hSR-B^(33-444); not shown: His6, N-terminal, kept
T1 sequence (looked up): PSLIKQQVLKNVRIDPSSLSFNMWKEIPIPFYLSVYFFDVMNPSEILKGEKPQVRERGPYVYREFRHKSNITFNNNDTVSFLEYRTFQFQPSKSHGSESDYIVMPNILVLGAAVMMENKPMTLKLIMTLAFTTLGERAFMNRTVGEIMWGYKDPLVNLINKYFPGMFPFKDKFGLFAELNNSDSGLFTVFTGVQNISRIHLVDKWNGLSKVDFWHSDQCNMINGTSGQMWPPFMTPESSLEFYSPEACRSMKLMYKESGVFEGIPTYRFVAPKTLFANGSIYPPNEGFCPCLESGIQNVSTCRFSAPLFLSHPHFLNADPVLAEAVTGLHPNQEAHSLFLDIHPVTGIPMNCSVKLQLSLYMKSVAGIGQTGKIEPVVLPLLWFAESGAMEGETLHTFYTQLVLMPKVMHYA

[2] = molecular target: T2, GFP-SR-B1 (fusion protein) (UniProt Q8WTV0 1-552); experiment: cell-based or functional assay
T2 sequence (looked up): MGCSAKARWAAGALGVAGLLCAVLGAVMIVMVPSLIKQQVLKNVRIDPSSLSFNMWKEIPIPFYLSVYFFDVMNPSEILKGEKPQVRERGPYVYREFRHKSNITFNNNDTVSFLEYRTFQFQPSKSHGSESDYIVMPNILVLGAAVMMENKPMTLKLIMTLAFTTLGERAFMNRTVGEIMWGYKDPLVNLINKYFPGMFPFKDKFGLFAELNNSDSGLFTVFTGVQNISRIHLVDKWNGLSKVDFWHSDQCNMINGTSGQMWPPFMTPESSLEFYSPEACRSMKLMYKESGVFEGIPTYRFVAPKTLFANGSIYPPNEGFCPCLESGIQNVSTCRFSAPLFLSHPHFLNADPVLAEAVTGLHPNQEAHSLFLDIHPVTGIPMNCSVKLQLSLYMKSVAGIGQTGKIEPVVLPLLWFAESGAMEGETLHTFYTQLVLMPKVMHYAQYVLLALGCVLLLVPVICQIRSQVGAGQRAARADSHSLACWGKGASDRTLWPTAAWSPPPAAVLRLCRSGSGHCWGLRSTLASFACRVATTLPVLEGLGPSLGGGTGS

Kd [1]: 2060 nM
B1: full-length APOA1-Milano, from 293F cells (protein A-APOA1-Milano) (natural protein)
chain: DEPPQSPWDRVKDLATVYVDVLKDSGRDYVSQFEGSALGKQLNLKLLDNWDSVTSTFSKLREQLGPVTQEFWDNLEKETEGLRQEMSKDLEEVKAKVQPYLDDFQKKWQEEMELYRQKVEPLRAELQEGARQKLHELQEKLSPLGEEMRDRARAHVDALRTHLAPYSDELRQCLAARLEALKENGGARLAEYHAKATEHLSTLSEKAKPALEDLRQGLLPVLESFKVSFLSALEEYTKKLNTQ

reduction of DiI-LDL internalization in HCAECs by 20-fold excess (by protein mass) of unlabeled recombinant APOA1-Milano, against PBS; competition with LDL [2]: 2.9 fold
uptake of DiI-rHDL^Mil (APOA1-Milano in DMPC particles, 5 μg/ml, 1 h, 37°C) by HeLa cells expressing untagged SR-B1 + GFP, DiI fluorescence against cells expressing soluble GFP or GFP-Alk1 [2]: ~15 fold
B2: recombinant APOA1-Milano, from ClearColi (natural protein)
chain: not shown
